± gives the standard deviation of the averaged measurements. This is one part of the list.
system: PfAP2-G AP2 domain (GST-tagged); assay: gcPBM binding intensity (ln(normalized median fluorescence intensity)); higher = stronger DNA binding
Procedure, shortened: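 Binding intensity values are the highest Masliner-normalised natural-log median intensity among replicate spots of either probe orientation. The binding step lasted 1 h in 1× PBS with 1% milk, 0.2 mg/ml BSA, 0.5% salmon testes DNA and 0.03% Triton X-100, using GST-tagged P. falciparum DNA-binding domains expressed in E. coli on an Agilent 4 × 180k array of primer-extended double-stranded 36-bp intergenic genomic probes plus negative controls. Alexa488 anti-GST antibody and a 488 nm scan detected bound protein.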

Row | Sequence | gcPBM binding intensity (ln)
1 | GAAATGGGTAAACATACACACACACCGATATATATA [CACACA_site8610] | 10.1 ± 0.12
2 | GAAAAAAAAATACATACACACAATATATTTATTTAT [CACACA_site3124] | 9.98 ± 0.21
3 | GGAACGTTCATATTTCCACACACAAAAAATAAATAT [CACACA_site9101] | 10.2 ± 0.13
4 | TTTATTTTAAAATATAGTACGCAAATAAAAATAAAT [XGTACX_site7783] | 11.4 ± 1
5 | ATATGTATTAAGTGTACACATATAATGGGTTTTCTT [CACACA_site5328] | 11.6 ± 0.73
6 | TATTATATATAATATTGTACATTAAAATATTAAAGA [XGTACX_site3698] | 10.9 ± 0.67
7 | ATATGTAGTGTTATTTGTTCATTGTTTTAATTTTTA [CACACA_negctrl_site1394] | 10.215 ± 0.007
8 | TATATACTATATATATGTACACAAAATTATTTTGAA [XGTACX_site8232] | 11.5 ± 0.84
9 | TAATTATATAAATACACACACATACACCCAAATAAA [CACACA_site5819] | 10.5 ± 0.35
10 | TTATATGCATATTTTTGTACACAACATTGTTGTATA [XGTACX_site8707] | 11.2 ± 0.64
11 | AAATATTTCTGCAAGGTGCACTTTATAAATCTTTGA | 10.5 ± 0.74
12 | AAGAAATTTATTTATTGTACAATATATAATTTGTTT [XGTACX_site2478] | 10.9 ± 0.54
13 | AATATGGGCATACATGTGCACTTTTTCCCGTGGTTT | 10.4 ± 0.13
14 | TTAATTAAATATAGGGGTACATATTATATATGTTTT [XGTACX_site3677] | 11.5 ± 0.88
15 | ACGAAAAGATATATATGTACATATATTAAAAAAAAA [XGTACX_site1517] | 11.1 ± 0.61
16 | TTATTTTTTTTTAGAGCACACATTTTTAATAAGGTA [CACACA_site2133] | 10.3 ± 0.4
17 | ATGTATATTTTTATGTGTACGTAATAAAACATAATA [XGTACX_site7777] | 11.6 ± 0.86
18 | TGAAGCAAAAACAAAACACACATATAAATAAATAAA [CACACA_site3925] | 9.875 ± 0.007
19 | TTATTTTTTATAAAATGTACATATATTTTAAATATA [XGTACX_site4026] | 11.2 ± 0.75
20 | ACCAATCCAAAAGAATGTACCCATGTTTTAAAATAT [XGTACX_site2907] | 11.2 ± 0.92
21 | TATAAATTTGTTCAATGTACATGTAAAGATATAATC [XGTACX_site371] | 11.1 ± 0.67
22 | TTCGTATGCATGAAATGTACATGATATTATTATAAA [XGTACX_site4542] | 10.9 ± 0.57

Row | Sequence | gcPBM binding intensity (ln)
23 | TTTTGTTAACATATAGAAAAGAACAAAGTTAAAAAG [XGTACX_negctrl_site462] | 10.13 ± 0.035
24 | AGTATGTAAATGTGCCATATATATATTAAATACATA [CACACA_negctrl_site14] | 10.1 ± 0.23
25 | GTTGGTAGGCGGTACGGTACACGTAGTATTTTTCTT [XGTACX_site4213] | 11.1 ± 0.67
26 | ATATTATTTATTTTTAAATTATATTGATTATTTTTT [CACACA_negctrl_site451] | 9.45 ± 0.028
27 | TATTTATAAATATACGCACACATTAATATATATATA [CACACA_site3969] | 10.4 ± 0.38
28 | TAATGTTCCTATATAGTGCAATTATGTTTTATTTCT | 10.06 ± 0.035
29 | TTTTAATTTTTAAGACGTACTATCATTTGATAATAA [XGTACX_site3942] | 11.1 ± 0.8
30 | TACGATGTTTTAAAATGTACATAAAAGTCACATAAG [XGTACX_site3297] | 11.1 ± 0.69
31 | TCTTTTTTTTTTACTAGTACTTAAAAAAAAAATATG [XGTACX_site4395] | 11.2 ± 0.79
32 | ATTATGTGCCAATACACACACACATCTATATTTATA [CACACA_site6359] | 10.2 ± 0.16
33 | TTGAAGTGTACTATTTTATATATATATATACATTTT [CACACA_negctrl_site224] | 11.6 ± 0.92
34 | TAGAAATATATTTATTGTACATTGTATATATTATAT [XGTACX_site7584] | 10.6 ± 0.2
35 | CATAAATACAAATATACACACATATATATATATATA [CACACA_site2633] | 10.2 ± 0.55
36 | AATATGTTTTTTAGATGTACAGATTAAATATTAAAA [XGTACX_site7308] | 11.2 ± 0.88
37 | AAATCACAAAAAAAAAAAAAAATATATATATATATA [CACACA_negctrl_site10] | 9.69 ± 0.33
38 | TTATTATATAAATAAAAAAAAAAAAAAAAAAAAAAA [CACACA_negctrl_site1455] | 9.51 ± 0.35
39 | TATATACGCATGCGCACACACAAGTGGGAAATTTGG [CACACA_site1785] | 10.5 ± 0.19
40 | ATATTTATATGAATCACACACAAAAAATATAGAGAT [CACACA_site7775] | 10.1 ± 0.14
41 | ACTGTGGGAATAACCACACACACACCCACATATATA [CACACA_site3542] | 10.3 ± 0.23
42 | TTAATTATATGGTAAACAAATAAATGTGAAAGGAAA [XGTACX_negctrl_site389] | 10.02 ± 0.028
43 | CGTGGGAGCAGACACACACACACACCCATATATATA [CACACA_site334] | 10.24 ± 0.078
44 | TTTTTTTCATATATATGTACATAATTATATATGCAT [XGTACX_site3257] | 11.2 ± 0.75

Row | Sequence | gcPBM binding intensity (ln)
45 | AAATAGTAAGAGATGGTGCGTTTCCTTTTTTTTTTT [GTGCAC_site9663] | 9.83 ± 0.21
46 | TTTAAAAATATTTCACGTACGCATTTTAAAAAGTAT [XGTACX_site8026] | 11.6 ± 1
47 | TACAAGAACAAAAAATGTACGAAATAATTACAAATA [XGTACX_site5824] | 10.7 ± 0.34
48 | AATCTTTTTAAATCTTGATTAATTTCGGGTATATAT [TGCATGCA_negctrl_site107] | 9.99 ± 0.29
49 | ATACAATAATATAAATGTACAAATTATATCTTCATT [XGTACX_site8994] | 10.7 ± 0.28
50 | AAATTAAATATTATATTAATTCTTAAATTTTTTTTT [CACACA_negctrl_site439] | 9.29 ± 0.19
51 | AAACATATGGTATTTAAACACACAAAAAAGAAAGAA [CACACA_site8239] | 10.1 ± 0.21
52 | ATGTTGTGGATATATACACACATACATATTTATATA [CACACA_site6857] | 10.2 ± 0.18
53 | TATATTATATATATATGTACATATTATTATATCTAA [XGTACX_site3835] | 11.2 ± 0.78
54 | TTTTGTATTTTTCACACACACATAAGTAAACAATAA [CACACA_site1899] | 10.4 ± 0.35
55 | TAAATGAAAATATGTACACACTTGAAAATTTTTATG [CACACA_site5599] | 11.5 ± 0.82
56 | AAAAAAAAAAAAAAAACACACAAACATCAAATTACT [CACACA_site6950] | 10.4 ± 0.18
57 | AAATTTAAAAATAAAGAACACACATATGTAAAATAT [CACACA_site9252] | 10.19 ± 0.028
58 | AATTTCAATTTCTGTTGTACACTTTTTAATAGTAAA [XGTACX_site4085] | 11.4 ± 0.88
59 | AAGTGTTCTTGTTATACACACACATATATATATATA [CACACA_site8251] | 10.4 ± 0.47
60 | TATGATAAATATGGAGCACACACACCGAAACATACA [CACACA_site8031] | 10.5 ± 0.3
61 | AAAAAGATAAAATATACATGCATATATAATATACAT [TGCATGCA_site488] | 9.55 ± 0.3
62 | TGCTTATATATAAATTGTACTGAAAGAATAAAATAA [XGTACX_site4025] | 10.9 ± 0.67
63 | TATTATAATATATTTGTGCACATAATATCTCCGCTA [GTGCAC_site9799] | 10.5 ± 0.35
64 | AGTAGTCTGGAGAAAAGTACATAGTATCTGATAACC [XGTACX_site2028] | 11.3 ± 0.94
65 | AAAAAAGGTAAAAAAAGTACAAAAAAAAAATTAAAA [XGTACX_site6993] | 11.3 ± 0.88
66 | AAAAAAAAAAAATACACACACATATTTATTTATATA [CACACA_site7114] | 9.74 ± 0.099

Row | Sequence | gcPBM binding intensity (ln)
67 | AAGTATAAATAAAGGCGTACACATGTAAATTATATT [XGTACX_site126] | 11.7 ± 1.1
68 | TTTGGATAAAAAATATGTACACACATATAGATATCT [XGTACX_site5660] | 11.6 ± 0.71
69 | TTGACAGGAACGTTGGTGCACGTACTGTTTTTCTTT [GTGCAC_site9389] | 11 ± 0.53
70 | GTATAATATTTTAATGCACACACACTAATAAAAAAA [CACACA_site8939] | 10.3 ± 0.21
71 | TAATAGATGTTATGAAGTACTAAATATTAAATATAA [XGTACX_site5717] | 10.9 ± 0.55
72 | TTTATTTTAAATGGGTGTACTCATTCCTTATGGAAG [XGTACX_site1397] | 11.4 ± 0.98
73 | AAAATAATTCATGTTGGTAATAAGACTCGAGGTGAA [CACACA_negctrl_site1054] | 10.08 ± 0.014
74 | TTGCATTTATTATACACACACAAAAAAATATTTATA [CACACA_site6252] | 10.2 ± 0.16
75 | AAAACATAAATACATACACACATAATATAGATTAAT [CACACA_site6205] | 9.955 ± 0.092
76 | CATATGTATATGACTACACACAAGGGTGTACCTATA [CACACA_site6670] | 11.5 ± 1
77 | TTAAAAATAAATTCATGTACATAATATATATATATA [XGTACX_site7908] | 11.2 ± 0.59
78 | TATATACAACGTTAAGCACACACAAAAAAAATTTAA [CACACA_site9013] | 10.2 ± 0.26
79 | TGTTCATTTTTAAAATGTACATATATGTTGTTCCAT [XGTACX_site8444] | 11 ± 0.75
80 | CTATATGTTAAATTCTCACACATTATTACAATTTAA [CACACA_site5979] | 9.89 ± 0.028
81 | TATACTATTTAAATGTGTACTAAAAGAATATATTAT [XGTACX_site5238] | 11.3 ± 0.88
82 | GAATATGTGATATTTTGTACATAAAAATAATATATA [XGTACX_site6398] | 10.9 ± 0.61
83 | ACGTATTTTTAAATATATGAATTATGTAACTTGTGA [CACACA_negctrl_site1446] | 10.015 ± 0.007
84 | TTTAAAAATATATTCACACAGAAATAGTAAAAGTTA [CACACA_site4587] | 9.93 ± 0.13
85 | AATTATAAAAAAAAAAAAAAAAAAAAAAACTAAATG [CACACA_negctrl_site1379] | 9.73 ± 0.14
86 | ATAATGTATTTATATATATATATATATTTTAATAAA [CACACA_negctrl_site460] | 9.53 ± 0.11
87 | TAATAAATCAATAAATGTACATATATGTATAATTTC [XGTACX_site980] | 10.8 ± 0.31
88 | TATATATAGAAACACACACACACACCCAAGCGTAGC [CACACA_site63] | 10.3 ± 0.22

Source: the supplement of paper PMC11417369
